In the supplement of paper PMC11417369:
The list shows a part of the results.

System: PfHDP1 homeodomain (GST-tagged)
Assay: gcPBM binding intensity (ln(normalized median fluorescence intensity)); higher = stronger DNA binding
Procedure, shortened: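 An Agilent 4 × 180k array of primer-extended double-stranded 36-bp intergenic genomic probes, with negative controls, was incubated for 1 h with GST-tagged P. falciparum DNA-binding domains expressed in E. coli. Alexa488 anti-GST antibody detected bound protein, scanned at 488 nm. Binding intensity is the highest Masliner-normalised natural-log median intensity across replicate spots of either probe orientation.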

Sequence	gcPBM binding intensity (ln)
AGTGCATACATGAATTGTACTTTAAAATAAATTCTA [XGTACX_site8156]	8.88
TCCTATAATAACGTCACACATTAAATTTAATAAATT [CACACA_site4506]	6.68
TTACGAATTACATATTGTACATATGCACAATTTTAA [XGTACX_site6802]	8.91
AATTAAAATACAAATGTATGCATGTCTCATATAGAA [TGCATGCA_site822]	6.25
TACATAATTTAAAATTTTATAAGTTGTAATTCGTTT [XGTACX_negctrl_site308]	6.3
ATATCTAAATATATTACACACAGATATCTTCCTATA [CACACA_site3701]	6.8
AACAAATAAAGCTATGACATGTTAAAATTGTTTCAC [XGTACX_negctrl_site67]	6.34
ATTCGTATGAGCATAACACACAATATCGATATTTCT [CACACA_site4165]	7.45
ATAAAGGAATTTTATACACACAACATATAAATATAT [CACACA_site7365]	6.62
AGAGAAAAATATTTGGACAAAAATAATATAATATAT [CACACA_negctrl_site656]	6.55
CATACACCCATACATACACACATACATACACCCATA [CACACA_site5124]	7.08
TCTTTTCAATTATCCTATATTCTTTTATTTTTAATT [GTGCAC_negctrl_site326]	6.51
GATAAAGTAAAAATATGTACATATATATTTTAAGTT [XGTACX_site6439]	6.49
AGAAATTATAAATACCTACACACTTATCAAAATAAA [CACACA_site2264]	6.41
TAAGACATGATATATACACACCTTGTTTTAATTTTC [CACACA_site5282]	6.33
TATATCTGTAAATGCACACATATGTGGATATACTTA [CACACA_site5013]	10
TATAAATATAAATACACACACATATAGATTATAGAT [CACACA_site6429]	6.8
TCTAATAATATATACACACACATATATATTTATATA [CACACA_site2032]	6.68
TGCTACATTCTATGTACACACATATACATATATATA [CACACA_site893]	6.49
GTTCATTCATTTTAATGTACAAATTTAACTTTTTCT [XGTACX_site680]	6.06
ATTTATTTATCTAGCTATTCACCATTTTCTTTTGTT [CACACA_negctrl_site1259]	6.56
AAAGTATACAATGACGCATGCATATATATATACATA [TGCATGCA_site429]	6.49

Sequence	gcPBM binding intensity (ln)
ACTTTTTTGAACAACGTGCACGTATTCATAACAAAA	10.6
ATTAAAAATTATATTTTATAAAAATTAAAAGAAATA [CACACA_negctrl_site65]	6.47
ATCAGATATATATATTGTACATTTATATATAAATCA [XGTACX_site1960]	6.47
ATAGGATGTTTGCACTGTACCAAAAAATGAGCTGCA [XGTACX_site2825]	9.36
ACCCTATTTATATATACACACACATATATAAATAAA [CACACA_site8980]	7.27
CTAATTCGTATATGCTGTACCTTTTTCTTACGACTA [XGTACX_site4392]	6.69
ATATGGAATGATCATAGTACATAATTTAAAATTTTA [XGTACX_site3568]	6.33
AACATATATAATATTTGTACTTATATACAAAATATG [XGTACX_site7502]	6.18
TTTTTTAAAGCCTGTTCATCATCCTTACCTATCAAC [GTGCAC_negctrl_site452]	6.4
TATTTTTTCTTAAACACACACATATAGATTTATAAC [CACACA_site7354]	6.79
TGTCCTTATTGGCACACACACATATAAGAAATTTAA [CACACA_site5724]	6.79
CTTAAAAACAAAAATGCACACATAATAAGCATATGT [CACACA_site9149]	9.58
TGAAATTAGATATATACACACATATAGATTTATATG [CACACA_site7619]	6.31
ATTAAACTCATTAAGAGTACAGATAACATTAAAGTA [XGTACX_site8697]	6.25
AAAATTGTGAAAGGGAAGATGATCAAATTGTTAAGG [CACACA_negctrl_site1492]	6.99
TATAATGGTAAAAACACACAAATATGAAGATGTTAA [CACACA_site6479]	6.16
GATGGGCAAATTTACTGTACTTTTATAATATTTTTT [XGTACX_site4830]	6.69
AAAAAAAATTATATTTGTACGCATTAAAAAATCTAA [XGTACX_site1616]	6.35
GTACCTATAAATATTACACACATTTTCATTTTTAAC [CACACA_site7022]	7.13
TTTCATTTTAGAAGTACACACAAAAAATAAAATAAT [CACACA_site2141]	6.68
CTATAATAGAAGTGTACACACATATTTATGTCTGTA [CACACA_site7462]	6.4
TTTTCTTTATTATAATGTACTCACAAATAAATATAA [XGTACX_site7298]	6.65
